Source: PubChem BioAssay AID1508623 (National Center for Advancing Translational Sciences (NCATS), 2021)
Screen size: about 48,000 compounds; about 450 (0.94%) were called active. Roughly 19% stayed inconclusive and do not appear here. Calls follow the shape of the dose curve; as a rule, active = well fitted inhibition curve with a large enough effect; inconclusive = small, poorly fitted or top-dose-only effect; inactive = no such curve, though single readings can be large or run the other way. The list shows a part of the results.

Assay: Primary qHTS for Identification of Small Molecule Inhibitors of Huntingtin Promoter Activity; also: nearly all actives have a fitted effect of over 50% in size
Settings: HEK293 HTT promoter firefly luciferase reporter (activity 0% = vehicle and -100% = no light), 24 h; series mostly up to 57.5 µM; activity change, negative = inhibition: at the top concentration
Outline: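 Luminescence was read after Dual-Glo reagent and a 10 min room-temperature incubation. Values were normalized to vehicle (0% activity) and zero RLU (-100% activity). Reporter HEK293 cells had been exposed to compounds (up to 57.5 uM final) for 24 h.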

Activity change, negative = inhibition, inactive:
Cc1nnc2c3ccccc3nc(Nc3cccc(O)c3)n12 5.99%
O=C(NC1CC(=O)N(c2ccc(Cl)cc2)C1)c1ccc(S(=O)(=O)N2CCOCC2)cc1 (centres undefined) -28.2%
COc1cc(C2C(C(=O)Nc3ccccc3)=C(C)Nc3nnnn32)cc(OC)c1OC (centres undefined) -8.18%
COc1ccc(-c2noc(CN(C(=O)c3cc(OC)c(OC)cc3OC)C(C)C)n2)cc1 -19.9%
CCOc1ccc2nc(N3CCCC(C(=O)NCc4ccccc4OC)C3)sc2c1 (centres undefined) 27.7%
Cc1ccc(Cl)cc1NC(=O)C1CCN(c2nc3ccccc3n3cccc23)CC1 0.876%
CCCn1c2ccccc2c2cnn(CC(=O)NCCc3ccc(C)cc3)c(=O)c21 -9.19%
CCOc1ccc(S(=O)(=O)Nc2cc(Cl)ccc2OC)c2cccnc12 -28.3%
Cc1nc(C(=O)NCC(=O)O)c(O)c2ccc(Oc3ccccc3)cc12 5.1%
Cc1ccc(/C=C/c2onc(C)c2S(=O)(=O)N2CCC(C(=O)Nc3cc(F)ccc3F)CC2)cc1 -11%
CC(=O)Nc1ccn(C2COC(COC(=O)c3ccccc3)O2)c(=O)n1 (centres undefined) -9.35%
COc1ccc(Nc2oc(/C=C/c3ccc(OC)c(OC)c3)nc2C#N)cc1 -3.83%
COCCn1c(=O)[nH]c2cc(C(=O)Nc3cccc(C(C)=O)c3)ccc2c1=O 0.186%
CCc1nn(CC(=O)NCCCOC)c(=O)c2cc3ccccc3n12 3.85%
Cc1cc(C)c2oc(C(=O)Nc3ccc(S(=O)(=O)Nc4nccc(C)n4)cc3)cc(=O)c2c1 -20.6%
Cc1cc(C)cc(-n2ccn(Cc3ccc(F)cc3)c(=O)c2=O)c1 -24.7%
CCCn1c(CCC(=O)Nc2ccccc2OC)nc2cccnc21 -6.81%
COc1ccc2oc(-c3cccc(NC(=O)c4sc5c([N+](=O)[O-])cccc5c4Cl)c3)nc2c1 -10.5%
Cc1cccc(C)c1Nc1c(-c2ccc(O)cc2)nc2sccn12 -13.3%
O=c1c2sc3ccccc3c2n(Cc2cccc(C(F)(F)F)c2)c(=O)n1Cc1ccc(F)cc1 -11.3%
COc1ccc(NC(=O)CC2C(=O)N(c3cccc(OC)c3)C(=O)N2Cc2ccc3c(c2)OCO3)cc1 (centres undefined) -6.14%
COc1cccc2c1C(=O)c1c(O)c3c(c(O)c1C2=O)C[C@@](O)(C(=O)CO)C[C@@H]3O[C@H]1C[C@H](N)[C@H](O[C@@H]2CCCCO2)[C@H](C)O1 -28.6%
Cc1ccc(CNC(=O)CCCN2C(=O)COc3ccc(C)cc32)cc1 -1.6%
Cc1cccc(NC(=O)C(=O)NCCc2csc(-c3ccc(C(F)(F)F)cc3)n2)c1C 4.42%
O=C(CC1N=C2c3ccccc3N=C(SCC(=O)Nc3ccccc3F)N2C1=O)NCc1cccs1 (centres undefined) 2.72%
Cc1ccc(NC(=O)c2c(NC(=O)c3ccccc3)sc3c2CCC3)cc1 20.4%
CC1CCc2c(sc(NC(=O)c3cc(-c4ccc(F)cc4)on3)c2C(N)=O)C1 (centres undefined) 0.39%
Cc1ccc2sc(N(Cc3cccnc3)C(=O)C3COc4ccccc4O3)nc2c1C (centres undefined) -3.86%
CCc1ccc(CN(C(=O)c2cc(=O)c3ccc(C)cc3o2)C2CCS(=O)(=O)C2)cc1 (centres undefined) -20.4%
CC(C)Cn1c(=O)c2sccc2n2c(CCCC(=O)NC3CCCCC3)nnc12 -16.5%
COc1cccc(CNC(=O)CCCn2nc(C)c3c(C)n(-c4ccc(C)cc4)nc3c2=O)c1OC -26%
CCN(CC)CCNC(=O)c1ccc(-n2c(-c3ccccc3)cc3c2CCCC3)cc1 9.68%
COc1ccc(CNC(=O)Cn2nc(C)c3c(C)n(-c4ccccc4)nc3c2=O)cc1OC -14.3%
CCCCc1ccc(NC(=O)C2(C)Cc3ccccc3C(=O)O2)cc1 (centres undefined) -21.2%
CCc1ccc(C2CC(=O)Oc3c2c(=O)n(C)c2ccccc32)cc1 (centres undefined) -17.3%
COc1ccc(N(C)C(=O)c2cc(S(=O)(=O)N3CCc4ccccc43)cn2C)c(OC)c1 -27.1%
Cc1cccc(-c2nc(C(N)=O)c3c(n2)n(-c2ccc4c(c2)OCO4)c(=O)n3C)c1 -3.9%
Cc1cc(C)cc(NC(=O)Cn2cc(C(=O)c3ccccc3)c(=O)c3ccc(C)nc32)c1 0.35%
CCOC(=O)CSc1nc2ccc(NC(=O)COc3ccccc3C)cc2s1 6.17%
COC(=O)CN1C(=O)C(O)(CC(=O)c2ccc(F)cc2)c2ccccc21 (centres undefined) -6.49% [at 11.5 µM]
Cc1ccc(-n2c3nc(=O)[nH]c(=O)c-3cc3c(C)nn(-c4ccccc4)c32)c(C)c1 -6.81%
Cc1ccc(Cl)cc1NC(=O)CCS(=O)(=O)c1ccc2c(c1)n(C)c(=O)c(=O)n2C -5.53%
O=C(Nc1ccc(Cl)cc1)c1cc2c(-c3ccccc3)nn(-c3ccccc3)c2s1 -3.09%
Cc1nn(CC(=O)N2CCCCC2)c(=O)c2cc3occc3n12 -4.38%
CC(C)Cn1cc(NC(=O)NCc2ccccc2Cl)c2ccccc2c1=O -6.42%
CC(NC(=O)C1CCN(S(=O)(=O)c2ccc3nc4c(c(C(=O)O)c3c2)CCCC4)CC1)c1ccccc1 (centres undefined) -14.8%
Cc1ccc(NC(=O)CCS(=O)(=O)c2cc(Br)cc3c2N(C(=O)C2CC2)CC3)cc1 -9.46%
O=C(CSc1oc(-c2ccccc2)nc1S(=O)(=O)c1ccccc1)c1ccccc1 -28.7%
Cc1ccc2nc(NCCc3ccccc3)c3nncn3c2c1 8.04%
Cc1nn(-c2ccccc2)c(OC(=O)C(C)(C)C)c1Sc1ccccc1 -3.25%
O=c1oc2ccccc2cc1-c1cn2cc(Cc3ccccc3F)sc2n1 29%
CCn1c(=O)cc(OCC(=O)Nc2ccc(C)c(F)c2)c2ccccc21 -6.17%
COCCn1c(=N)c(C(=O)NCc2ccco2)cc2c(=O)n3cc(C)ccc3nc21 -3.69%
COC(=O)c1cc(NS(=O)(=O)c2cc(Br)cc3c2N(C(C)=O)CC3)cc(C(=O)OC)c1 -5.12%
Cc1nnc(NC(=O)C(=O)c2cc(C)n(-c3ccc(C)c(C)c3)c2C)s1 -19.9%
Cc1cccc(-n2c(=O)c3c(c4cc(C)ccc4n3C)n(CC(=O)Nc3ccc(C)cc3C)c2=O)c1 -15.9%
Cc1ccc(C(=O)Nc2ccc3oc(-c4ccncc4)nc3c2)c(Cl)c1 -17.3%
CCc1ccc(-n2c(=O)c3cccnc3n2CC(=O)Nc2ccccc2C(F)(F)F)cc1 -20.2%
COc1ccc(-c2ccc(CCC(=O)O)n2CC(=O)Nc2cccc(C(F)(F)F)c2)cc1 -26.2%
COc1ccc(N2CCN(C(=O)c3ccc4c(Cl)c5c(nc4c3)CCCC5)CC2)cc1 -3.83%
CCOC(=O)c1c(NC(C)=O)c2c3c(sc2n1Cc1nc(-c2cccc(C)c2)oc1C)CCCC3 -11.3%
CCOc1ccc(-c2cc(C(=O)NCCc3ccc(Cl)cc3)c3ccccc3n2)cc1 -15.6%
COc1cc(-c2cc(OC)c3c(C)oc(C)c3c(=O)c2)ccc1OC(=O)c1ccccc1F 2.27%
COc1ccccc1C(=O)NC1=NC(c2ccc(Br)cc2)CC(=O)N1 (centres undefined) 47.7%
OCCCc1nc2n(n1)C(c1cccc(Cl)c1)C=C(c1ccccc1)N2 (centres undefined) -25%
COc1ccccc1-c1nc(CNC(=O)Nc2ccccc2)c(C)o1 0%
O=[N+]([O-])c1cc(-c2nc(-c3ccccc3)no2)ccc1NC1CCCC1 -27%
COc1ccc(CN2C(=O)N(c3ccc(C)cc3)C(=O)C2CC(=O)Nc2ccccc2)cc1OC (centres undefined) -0.823%
CCCCCCNC(=O)n1cc(F)c(=O)[nH]c1=O
O=C1CCCc2[nH]c(=O)c(-c3nc(-c4cccc([N+](=O)[O-])c4)cs3)cc21 -6.84%
COc1ccc(-c2nc(CNC(=O)NC3CCCCC3)c(C)o2)c(OC)c1 -6.33%
CCOC(=O)c1cc2c(=O)n3ccccc3nc2n(Cc2ccco2)c1=NC(=O)c1ccc(F)cc1 -14.2%
O=C(CCCn1c(=O)[nH]c2ccccc2c1=O)N1CCN(c2ccccc2)CC1 -8.13%
O=S(=O)(NCCc1cn2ccsc2n1)c1ccc(Cl)cc1 -6.27%
O=C(CN1C(=O)COc2ccc(S(=O)(=O)N3CCOCC3)cc21)N1CCN(c2ccc(Cl)cc2)CC1 -6.95%
CCCCCCc1cc2cc(-c3cn4c(n3)sc3cc(OC)ccc34)c(=O)oc2cc1O -14.9%
COc1cc(OC)c(NC(=O)Cn2cnc3c(nc4n3CCCCC4)c2=O)cc1Cl -11.6% [at 11.5 µM]
CCN(CCCNC(=O)Cn1ncc2c3ccccc3n(C)c2c1=O)c1cccc(C)c1 18.4%
Cc1cc(OCC(=O)Nc2nc3c(s2)CCCC3)cc(C)c1Cl 1.39%
CCOC(=O)c1ccccc1NC(=O)COc1cc(=O)n(CC)c2ccccc12 -15.6%
COc1ccc(Cl)cc1NC(=O)c1sc2nc3c(cc2c1N)CN(C)CC3 -7.09%
Cc1cccc(C)c1NC(=O)Cn1c(=O)cc(C)c2c(C)nn(-c3cccc(Cl)c3C)c21 -11.7%
CCOc1ccccc1NC(=O)Cn1c(=O)n(Cc2ccccc2)c(=O)c2c3c(sc21)CN(C(C)=O)CC3 -13.3%
O=C(CCC1N=C2c3ccccc3N=C(SCc3ccc(Cl)cc3)N2C1=O)NC1CCCCC1 (centres undefined) -16.6%
Cc1ccc(-n2ncc3c(N4CCCCC4)ncnc32)cc1 -91.8%
O=C(CN1CCN(C2CCCCC2)C(=O)C1=O)Nc1ccc(Cl)cc1 -14.4%
CCC(=O)Nc1ccccc1C(=O)OCc1cc(=O)n2cc(C)sc2n1 -20.6%
COc1ccc(OC)c(NC(=O)Cn2c(CCC(=O)O)ccc2-c2ccccc2)c1 -12.6%
CC(C)CCN1C(=O)c2ccccc2CC1(C)C(=O)NC1CCCCC1 (centres undefined) -21.7%
CC1CC(=O)N(CC(=O)Nc2ccc(OC(F)(F)F)cc2)c2ccccc2S1 (centres undefined) -20.6%
Cc1cccc(N(C)C(=O)c2cc3c(=O)oc4ccc(C)cc4c3s2)c1 -8.05%
Cc1ccc(CCNC(=O)c2cc3cc(S(=O)(=O)N4CCCCC4)ccc3n2C)cc1 -20.6%
CCOc1ccc(-n2nc3ccc(NC(=O)c4ccc(C)cc4C)cc3n2)cc1 -2.31%
CCN1CCOC(=O)C1CC(=O)Nc1cc(Cl)ccc1C (centres undefined) -0.817%
